Over roughly 33,000 sequences, “E-score (-0.5 to 0.5)” has its median near -0.041; the highest 2% begin near 0.37. The list shows a part of the results.
These sequences were tested against T1, Ecm22 (UniProt Q05958) (assay: PBM E-score (8-mer binding enrichment) (E-score (-0.5 to 0.5)); higher = stronger / more preferred TF binding; most listed sequences are background and not binding sites). Details: protein concentration: 200 nM; construct: GST-full length.
T1 sequence: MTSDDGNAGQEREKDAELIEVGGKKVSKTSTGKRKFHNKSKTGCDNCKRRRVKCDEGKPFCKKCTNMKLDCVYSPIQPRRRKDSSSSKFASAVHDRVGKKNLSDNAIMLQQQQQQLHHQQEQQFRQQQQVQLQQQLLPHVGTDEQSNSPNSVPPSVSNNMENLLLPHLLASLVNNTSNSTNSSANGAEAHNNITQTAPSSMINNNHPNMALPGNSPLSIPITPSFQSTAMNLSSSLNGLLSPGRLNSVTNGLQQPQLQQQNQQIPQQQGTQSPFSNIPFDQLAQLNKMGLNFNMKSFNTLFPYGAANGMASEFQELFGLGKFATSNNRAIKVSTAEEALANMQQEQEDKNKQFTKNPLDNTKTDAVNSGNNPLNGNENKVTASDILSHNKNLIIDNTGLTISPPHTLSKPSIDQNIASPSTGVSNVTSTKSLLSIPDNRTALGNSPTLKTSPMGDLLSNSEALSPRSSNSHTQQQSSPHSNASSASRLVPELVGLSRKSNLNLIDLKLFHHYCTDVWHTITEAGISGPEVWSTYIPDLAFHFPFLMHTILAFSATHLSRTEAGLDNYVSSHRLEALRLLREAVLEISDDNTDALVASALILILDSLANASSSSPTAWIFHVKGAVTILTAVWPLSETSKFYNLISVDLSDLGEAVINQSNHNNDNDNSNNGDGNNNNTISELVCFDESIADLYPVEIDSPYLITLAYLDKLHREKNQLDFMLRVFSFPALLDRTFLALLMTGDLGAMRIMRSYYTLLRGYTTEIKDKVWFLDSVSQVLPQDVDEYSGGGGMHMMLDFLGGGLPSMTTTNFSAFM
In short: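 Masliner-normalised scans of fluorescent anti-GST signal were the basis for scoring. That signal came from GST-tagged yeast transcription factors applied at about 100-200 nM to double-stranded universal all-10-mer Agilent arrays on fresh or once-stripped slides. Each ungapped eight-base word, pooled with its reverse complement, received an E-score from the Universal PBM Analysis Suite.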

| Sequence | PBM E-score |
| --- | --- |
| GGACTACC | -0.24 |
| ACGCCCAC | -0.181 |
| AAGATGTG | 0.00138 |
| GGTTGTGA | -0.0556 |
| TTAGACAA | -0.0641 |
| GGCGTCTA | -0.243 |
| AAGAAAAA | -0.272 |
| ATGACCTG | -0.076 |
| GCGCTGAA | -0.00226 |
| CGTTGCGA | 0.3 |
| ACGCACCG | 0.157 |
| ATTACTGA | 0.0728 |
| CCTCAATA | -0.215 |
| CTACTGAG | 0.0257 |
| TCCAAAGA | -0.212 |
| GAGTACCA | -0.17 |
| TATCGTGA | 0.0607 |
| AAACACCT | 0.0166 |
| AGTTCCAT | -0.0425 |
| AGGTGTAC | 0.0881 |
| ATGCGGTC | -0.0512 |
| AATGAGTG | -0.136 |
| CTGATCGC | -0.00452 |
| AAGAATCC | -0.0925 |
| CCATGCGA | 0.157 |

| Sequence | PBM E-score |
| --- | --- |
| ATCACTAA | -0.0903 |
| CCCGCCCC | -0.0225 |
| AAGGATGC | 0.0179 |
| CCTGCTAG | -0.336 |
| AGGCATTC | -0.2 |
| ACATCTCG | 0.187 |
| GCTGACTA | -0.205 |
| GACGCAAA | 0.114 |
| TAGCTTAA | 0.0865 |
| ACTATGCA | 0.108 |
| GAAGCGCC | 0.0109 |
| TAATATAA | 0.193 |
| CTGCCAGA | -0.126 |
| ACTCCACT | -0.243 |
| ACAGCTTG | 0.00728 |
| TAATGCGA | 0.293 |
| CTTTCACC | 0.105 |
| AGTACACC | 0.0652 |
| CGCAGCTA | -0.0418 |
| ATATACCG | 0.21 |
| AAATATTT | -0.00064 |
| CTGCTGGC | -0.208 |
| ACCGTCCG | 0.0211 |
| GACACTCA | -0.102 |
| AATTTTCA | -0.0619 |

| Sequence | PBM E-score |
| --- | --- |
| CCACTCTA | -0.304 |
| GGTCCTGA | -0.126 |
| CAGTGGTC | 0.0767 |
| CCGGTGCG | 0.115 |
| GGTAACAC | -0.135 |
| CCTGGTAG | -0.193 |
| CAGTCACG | -0.224 |
| CCTTATAC | 0.162 |
| CACACGCA | -0.0742 |
| CACACCGG | -0.271 |
| CCTAAGCC | -0.254 |
| CCCGAACC | 0.169 |
| CAAACCAG | -0.128 |
| TATCTTGA | -0.0626 |
| CAGCAAAG | -0.0505 |
| ATTGGCAG | -0.281 |
| ACGCTGCC | -0.184 |
| AAACAATA | 0.0442 |
| AGTCTCTC | -0.135 |
| GTCTCGAA | -0.00716 |
| GAAACCAC | -0.057 |
| GTTACGAA | 0.404 |
| ACGTGCAA | -0.0198 |
| CAGCCCGC | -0.297 |
| GACTAGAC | -0.103 |

| Sequence | PBM E-score |
| --- | --- |
| CAAACACG | 0.14 |
| GCCGTTCC | 0.444 |
| TGCGCTAA | 0.0517 |
| TATCTGCA | -0.00193 |
| ACCTCCCG | 0.0728 |
| CAGGGGAC | -0.271 |
| CGATGGCG | 0.00544 |
| AATCCGGT | 0.114 |
| GGCTCCTA | -0.159 |
| TACAAGGA | 0.0577 |
| AAATTCTT | -0.244 |
| CTTCACCC | -0.0276 |
| CACTGGGC | -0.181 |
| GCTAATCC | -0.00463 |
| GGTGCATA | -0.0343 |
| CTGTAAGC | -0.0915 |
| CAAGATCG | 0.122 |
| CTGTGGAA | -0.22 |
| GCGGACCA | 0.0245 |
| TTGAGAAA | -0.0766 |
| ATGTAATA | 0.106 |
| CAAGAGCC | -0.281 |
| CTTGAACA | -0.0552 |
| AAGCCGGA | -0.0426 |
| AACGTCGC | 0.182 |

| Sequence | PBM E-score |
| --- | --- |
| CTGAGAAG | -0.18 |
| ATTGCCCA | -0.181 |
| GACGGAGA | -0.0777 |
| ACTAACCC | -0.109 |
| TCGTGTAA | 0.321 |
| AGTCATCG | 0.0645 |
| AAATTAAT | -0.0222 |
| TGACGCCA | 0.0547 |
| GAGCCGAC | -0.00336 |
| CGCCTATA | 0.099 |
| CATATGGA | 0.0838 |
| CCTACACC | -0.2 |
| GCCTTAGA | -0.218 |
| ATTCATAG | 0.00436 |
| GCTTGTAC | 0.289 |
| ACCGAACA | 0.18 |
| CCGGAGCA | -0.0598 |
| CAATTGGC | -0.0158 |
| TGTACAAA | -0.0698 |
| AGCTCTGC | -0.402 |
| AATGTAGA | -0.0549 |
| AGCTTGCG | -0.0268 |
| CTGTATAA | 0.0431 |
| AGAGTTAG | -0.197 |
| GACATAGA | -0.0813 |

| Sequence | PBM E-score |
| --- | --- |
| CGTATGCC | 0.333 |
| CTCAAAAG | -0.0411 |
| TACCGCCA | -0.0721 |
| TCCATTAA | -0.131 |
| GCGCCAGA | -0.174 |
| AAAGTGCG | 0.017 |
| TTAGCAAA | -0.268 |
| GTATCCAC | 0.143 |
| AGTGAATG | 0.0364 |
| AAGCGAAG | 0.271 |
| ATGTCTTG | -0.0219 |
| ACAATCAT | -0.233 |
| GCGCAAGA | -0.0808 |
| TACGATCA | 0.443 |
| CGTGTATA | 0.151 |
| ATAGCGCA | -0.0397 |
| GGCGGAAC | -0.0162 |
| AGGCGTCC | -0.241 |
| CCATGGCC | -0.243 |
| CATCCAGC | 0.0233 |
| GAGCTAGA | -0.0397 |
| AACAAAAG | 0.0744 |
| CCCTGAAC | 0.16 |
| GACTCTTA | -0.162 |
| CTCTGAGA | -0.211 |

| Sequence | PBM E-score |
| --- | --- |
| AAGCCCAT | -0.233 |
| AAGGCCAA | -0.129 |
| AACATCAT | -0.104 |
| CCTATTGA | -0.0181 |
| AGACCTAT | 0.0825 |
| CGCGAAAG | 0.144 |
| CGGGTCAG | 0.0346 |
| GATGAGAC | -0.0882 |
| CTTACTAA | 0.022 |
| GCTCACCC | -0.0386 |
| CTGCCTTC | -0.225 |
| AACACGTA | 0.238 |
| GACCGTCC | -0.116 |
| AACGTAGG | -0.108 |
| GAGTAGAC | 0.0681 |
| CCAAACAG | -0.2 |
| CAAAGCTC | -0.177 |
| AGTGACAT | -0.283 |
| GCCAGGAA | -0.111 |
| GAGCGCTA | -0.155 |
| AATTCATA | 0.00157 |
| CCAGTTAA | 0.177 |
| GTTATCCA | -0.125 |
| CCATAGAC | -0.209 |
| ACTCTGCC | -0.0654 |

| Sequence | PBM E-score |
| --- | --- |
| CTGTTTAC | 0.0671 |
| CTCCTAAC | -0.0295 |
| ACCGAGAA | 0.267 |
| CCACGCGG | -0.139 |
| CCCATTAA | -0.0672 |
| GAGTGGGA | 0.13 |
| CATGGAAA | -0.072 |
| ACAGCAGG | -0.222 |
| AATCATCA | -0.0214 |
| ATGACGGA | -0.0489 |
| GAAGCATA | -0.107 |
| GCTATTTA | -0.0945 |
| ACGCACTG | 0.0575 |
| AAAAGACA | -0.0279 |
| GAGTGAGA | -0.164 |
| AGTTGGGA | -0.0908 |
| ATAGCCAT | -0.0163 |
| ACGACACA | 0.352 |
| CTACCAGA | -0.205 |
| ATAGCTCG | 0.173 |
| AACCTGTC | 0.0384 |
| CTGATGAA | -0.0703 |
| TGTAATAA | -0.0638 |
| CGCGTTCC | 0.284 |
| ATTCGACC | -0.00106 |

| Sequence | PBM E-score |
| --- | --- |
| TCACAAGA | -0.236 |
| ATGCGTAC | 0.3 |
| GTTTGCGA | 0.258 |
| CGCCGAAC | 0.197 |
| CGCAGCCA | -0.0169 |
| GGTCACGA | 0.116 |
| CGGCAGAA | 0.00319 |
| TGGAACCA | -0.0927 |
| ATAACCGA | 0.286 |
| CAAGGTGA | -0.106 |
| ATATGTCA | -0.0109 |
| GCAGTGCC | -0.179 |
| AGATTCCT | -0.227 |
| GCCTATAC | 0.00784 |
| CAAGTAAG | -0.302 |
| AAACGATT | 0.42 |
| CAGCGAGG | -0.141 |
| GCATCTGA | -0.207 |
| CCATTTGC | -0.0821 |

Reference: the supplement of paper PMC3334620
